From patent US20240391902A1, “Crystalline Form of Compound” (Shenzhen Forward Pharmaceuticals Co., Limited, priority 2020, published 2024)
This continues a long series; more values of the same kind are listed elsewhere.

Assay: Dynamic solubility test
Assay type: physicochemical
Conditions: room temperature, feeding concentration 10 mg/mL
Experimental: Determination method: According to a feeding concentration of 10 mg/mL, about 50 mg of the sample were weighed and added to 5 mL of the corresponding medium, and the sample was dissolved by rotating at […] at room temperature.

In the case of `C=CC(=O)Nc1cc(Nc2ncnc(-c3cn(C)c4ccccc34)n2)c(OC)cc1N(C)CCN(C)C` [Example 24], the dynamic solubility (FaSSIF, 2 h, listed as crystaline form IV-C of maleate salt) is reported as 7200 µg/mL, the dynamic solubility (FaSSIF, 4 h, listed as crystaline form IV-C of maleate salt) is reported as 7700 µg/mL and the dynamic solubility (FaSSIF, 24 h, listed as crystaline form IV-C of maleate salt) is reported as >9900 µg/mL. The dynamic solubility (FeSSIF, 0.5 h, listed as crystaline form IV-C of maleate salt) was >10000 µg/mL, the dynamic solubility (FeSSIF, 1 h, listed as crystaline form IV-C of maleate salt) was >10000 µg/mL and the dynamic solubility (FeSSIF, 2 h, listed as crystaline form IV-C of maleate salt) was >10000 µg/mL. The dynamic solubility (FeSSIF, 4 h, listed as crystaline form IV-C of maleate salt) was >10000 µg/mL, the dynamic solubility (FeSSIF, 24 h, listed as crystaline form IV-C of maleate salt) was >10000 µg/mL and the dynamic solubility (water, 0.5 h, listed as crystaline form IV-C of maleate salt) was 4000 µg/mL. The dynamic solubility (water, 1 h, listed as crystaline form IV-C of maleate salt) was 4300 µg/mL, the dynamic solubility (water, 2 h, listed as crystaline form IV-C of maleate salt) was 4400 µg/mL and the dynamic solubility (water, 4 h, listed as crystaline form IV-C of maleate salt) was 4700 µg/mL. For the same compound, the dynamic solubility (water, 24 h, listed as crystaline form IV-C of maleate salt) was 4400 µg/mL.

In the case of `C=CC(=O)Nc1cc(Nc2ncnc(-c3cn(C)c4ccccc34)n2)c(OC)cc1N(C)CCN(C)C` [Example 22], the dynamic solubility (FeSSIF, 0.5 h, listed as crystaline form II-A of mesylate salt) is reported as 8100 µg/mL, the dynamic solubility (FeSSIF, 1 h, listed as crystaline form II-A of mesylate salt) is reported as >9100 µg/mL and the dynamic solubility (FeSSIF, 2 h, listed as crystaline form II-A of mesylate salt) is reported as >10000 µg/mL. For the same compound, the dynamic solubility (FeSSIF, 4 h, listed as crystaline form II-A of mesylate salt) was >10000 µg/mL, the dynamic solubility (FeSSIF, 24 h, listed as crystaline form II-A of mesylate salt) was >10000 µg/mL and the dynamic solubility (water, 0.5 h, listed as crystaline form II-A of mesylate salt) was >9200 µg/mL. For the same compound, the dynamic solubility (water, 1 h, listed as crystaline form II-A of mesylate salt) was >9200 µg/mL, the dynamic solubility (water, 2 h, listed as crystaline form II-A of mesylate salt) was >9400 µg/mL and the dynamic solubility (water, 4 h, listed as crystaline form II-A of mesylate salt) was >9800 µg/mL. For the same compound, the dynamic solubility (water, 24 h, listed as crystaline form II-A of mesylate salt) was >9100 µg/mL.

For `C=CC(=O)Nc1cc(Nc2ncnc(-c3cn(C)c4ccccc34)n2)c(OC)cc1N(C)CCN(C)C` [Example 21], the dynamic solubility (FaSSIF, 0.5 h, listed as compound of formula (I)) was <1000 µg/mL, the dynamic solubility (FaSSIF, 1 h, listed as compound of formula (I)) was <1000 µg/mL and the dynamic solubility (FaSSIF, 2 h, listed as compound of formula (I)) was <1000 µg/mL. For the same compound, the dynamic solubility (FaSSIF, 4 h, listed as compound of formula (I)) was <1000 µg/mL, the dynamic solubility (FaSSIF, 24 h, listed as compound of formula (I)) was <1000 µg/mL and the dynamic solubility (FeSSIF, 0.5 h, listed as compound of formula (I)) was <1000 µg/mL. For the same compound, the dynamic solubility (FeSSIF, 1 h, listed as compound of formula (I)) was <1000 µg/mL, the dynamic solubility (FeSSIF, 2 h, listed as compound of formula (I)) was <1000 µg/mL and the dynamic solubility (FeSSIF, 4 h, listed as compound of formula (I)) was <1000 µg/mL. The dynamic solubility (FeSSIF, 24 h, listed as compound of formula (I)) was <1000 µg/mL.

With `C=CC(=O)Nc1cc(Nc2ncnc(-c3cn(C)c4ccccc34)n2)c(OC)cc1N(C)CCN(C)C` [Example 23] the dynamic solubility (FeSSIF, 0.5 h, listed as crystaline form III-A of hydrochloride salt) was >10000 µg/mL, the dynamic solubility (FeSSIF, 1 h, listed as crystaline form III-A of hydrochloride salt) was >10000 µg/mL and the dynamic solubility (FeSSIF, 2 h, listed as crystaline form III-A of hydrochloride salt) was >10000 µg/mL. For the same compound, the dynamic solubility (FeSSIF, 4 h, listed as crystaline form III-A of hydrochloride salt) was >10000 µg/mL, the dynamic solubility (FeSSIF, 24 h, listed as crystaline form III-A of hydrochloride salt) was >10000 µg/mL and the dynamic solubility (water, 0.5 h, listed as crystaline form III-A of hydrochloride salt) was 8200 µg/mL. For the same compound, the dynamic solubility (water, 1 h, listed as crystaline form III-A of hydrochloride salt) was 8800 µg/mL, the dynamic solubility (water, 2 h, listed as crystaline form III-A of hydrochloride salt) was 9700 µg/mL and the dynamic solubility (water, 4 h, listed as crystaline form III-A of hydrochloride salt) was 9000 µg/mL. For the same compound, the dynamic solubility (water, 24 h, listed as crystaline form III-A of hydrochloride salt) was 9700 µg/mL.
